Data published in the supplement of paper PMC3334620.
In all, about 33,000 sequences were measured (“E-score (-0.5 to 0.5)”: median about -0.017, highest 2% from about 0.3 on). Some of the results follow.

What follows are sequences tested against T1, Sut1 (UniProt P53032) (assay: PBM E-score (8-mer binding enrichment) (E-score (-0.5 to 0.5)); higher = stronger / more preferred TF binding; most listed sequences are background and not binding sites). Conditions: protein concentration: 200 nM; construct: GST-full length.
T1 sequence: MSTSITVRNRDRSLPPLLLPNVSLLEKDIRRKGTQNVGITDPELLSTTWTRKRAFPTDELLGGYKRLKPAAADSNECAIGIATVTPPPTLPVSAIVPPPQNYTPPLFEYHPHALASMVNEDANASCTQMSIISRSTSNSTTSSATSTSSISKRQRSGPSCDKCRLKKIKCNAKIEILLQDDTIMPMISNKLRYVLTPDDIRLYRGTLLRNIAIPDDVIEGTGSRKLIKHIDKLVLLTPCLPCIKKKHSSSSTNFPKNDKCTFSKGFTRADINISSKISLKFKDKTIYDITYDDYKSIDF
In short: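 Universal all-10-mer Agilent arrays, double-stranded by primer extension on fresh or once-stripped slides, were probed with about 100-200 nM GST-tagged yeast transcription factors made by PURExpress. Fluorescent anti-GST detected bound protein, and masliner normalised the scans. E-scores from the Universal PBM Analysis Suite were given to each ungapped eight-base word pooled with its reverse complement.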
With GCCAAAGC the “PBM E-score” value was -0.108.
AATGATAG was tested, and the “PBM E-score” value was 0.251.
With ATCGTTTG the “PBM E-score” value was 0.131.
For ATCGCAGA, the “PBM E-score” value was -0.151.
With ACTAAGCG the “PBM E-score” value was -0.0189.
For CACGGATC, the “PBM E-score” value was 0.036.
With ACCTAAAT the “PBM E-score” value was 0.138.
With CTAACTTA the “PBM E-score” value was 0.0749.
GCACCTGC was tested, and the “PBM E-score” value was -0.0964.
In the case of GAACCAGC, the “PBM E-score” value is reported as -0.0225.
With ATAGTGTG the “PBM E-score” value was 0.0254.
GGTCAGGA was tested, and the “PBM E-score” value was -0.0699.
For CTGTTAGA, the “PBM E-score” value was -0.124.
In the case of CTTCCTAC, the “PBM E-score” value is reported as -0.25.
In the case of GGATAGCA, the “PBM E-score” value is reported as 0.0461.
In the case of GGGTCTAC, the “PBM E-score” value is reported as -0.0245.
CAGGCAAG was tested, and the “PBM E-score” value was -0.225.
For CTTCAGTA, the “PBM E-score” value was 0.0951.
For CGCCGCCC, the “PBM E-score” value was -0.0965.
In the case of CTGCAGCA, the “PBM E-score” value is reported as -0.153.
In the case of TAAAACCA, the “PBM E-score” value is reported as 0.0167.
With GCATGCAA the “PBM E-score” value was 0.0686.
In the case of ATCTGCGC, the “PBM E-score” value is reported as -0.245.
In the case of ACGCGCTA, the “PBM E-score” value is reported as -0.0186.
CCAGGTCG was tested, and the “PBM E-score” value was -0.345.
For AAGGTAGG, the “PBM E-score” value was 0.132.
TGGTGAAA was tested, and the “PBM E-score” value was 0.0238.
For CAGGTCAA, the “PBM E-score” value was 0.0382.
GGACGCCC was tested, and the “PBM E-score” value was -0.171.
In the case of AACGGTCT, the “PBM E-score” value is reported as -0.0776.
For AAACACTG, the “PBM E-score” value was -0.0265.
GAGGAAAA was tested, and the “PBM E-score” value was 0.178.
With CGATCATA the “PBM E-score” value was 0.00404.
With CCGGTGGA the “PBM E-score” value was 0.102.
AGTGATTG was tested, and the “PBM E-score” value was 0.122.
For ACGAGTGG, the “PBM E-score” value was -0.101.
In the case of ACGTCGTA, the “PBM E-score” value is reported as -0.0441.
ATTCTAGA was tested, and the “PBM E-score” value was 0.116.
For GTTAATAA, the “PBM E-score” value was 0.319.
In the case of CTGTCGAC, the “PBM E-score” value is reported as -0.0759.
With GCAAGACA the “PBM E-score” value was -0.143.
TGGCCCAA was tested, and the “PBM E-score” value was -0.197.
CCACGGCG was tested, and the “PBM E-score” value was -0.0782.
With AGGCTCGA the “PBM E-score” value was -0.0616.
For GGGCAGCA, the “PBM E-score” value was -0.237.
For CCGACCAA, the “PBM E-score” value was -0.0457.
For CCACTCTC, the “PBM E-score” value was -0.0616.
With ACGACACT the “PBM E-score” value was 0.122.
For AGCCCATC, the “PBM E-score” value was -0.23.
For ACAGTCGC, the “PBM E-score” value was -0.178.
With GACGATAC the “PBM E-score” value was 0.133.
In the case of TCATAGAA, the “PBM E-score” value is reported as 0.0681.
For ACACTTGA, the “PBM E-score” value was -0.00965.
In the case of CCACATAC, the “PBM E-score” value is reported as 0.122.
For AGAGCCCC, the “PBM E-score” value was -0.164.
With GAAAGTAC the “PBM E-score” value was 0.0374.
GCATCATA was tested, and the “PBM E-score” value was 0.189.
ACATAGGT was tested, and the “PBM E-score” value was -0.0933.
ATAGAAGA was tested, and the “PBM E-score” value was 0.0626.
For GACCAACA, the “PBM E-score” value was 0.146.
In the case of ATCACGCC, the “PBM E-score” value is reported as -0.00259.
AGAGCGAG was tested, and the “PBM E-score” value was -0.0702.
CCTACGCC was tested, and the “PBM E-score” value was -0.314.
In the case of GTAGACGA, the “PBM E-score” value is reported as 0.0141.
ACACACCA was tested, and the “PBM E-score” value was 0.0421.
GATTACGC was tested, and the “PBM E-score” value was 0.0223.
With TAGTGGGA the “PBM E-score” value was -0.138.
With ACCCGGGG the “PBM E-score” value was -0.118.
In the case of CCGAGCCA, the “PBM E-score” value is reported as 0.00845.
In the case of AAGTGATC, the “PBM E-score” value is reported as 0.0944.
CTCGGTCA was tested, and the “PBM E-score” value was -0.0926.
In the case of TCAGGAAA, the “PBM E-score” value is reported as -0.0652.
In the case of ATATTGGA, the “PBM E-score” value is reported as 0.18.
For AATTTGCT, the “PBM E-score” value was 0.0801.
For CAAATGCA, the “PBM E-score” value was 0.0654.
With GCAAATGA the “PBM E-score” value was 0.0175.
CGAAAGAG was tested, and the “PBM E-score” value was -0.0369.
With TAGTATGA the “PBM E-score” value was 0.266.
AGCGAAAG was tested, and the “PBM E-score” value was 0.0357.
With ACCGCTAA the “PBM E-score” value was 0.0717.
In the case of CATTATCA, the “PBM E-score” value is reported as 0.0993.
AGACAATA was tested, and the “PBM E-score” value was 0.189.
With GCGAGAGC the “PBM E-score” value was 0.0778.
For AATTTAAT, the “PBM E-score” value was 0.317.
For AACTAAGA, the “PBM E-score” value was 0.161.
For GATCTAGA, the “PBM E-score” value was -0.0313.
